Results as given in the supplement of paper PMC9151546.
Single values are uncertain, as repeats are few or missing.

Experiments:
CHO-K1 [1] = assay: relative survival (nuclei to bead ratio vs DMSO control) (% of vehicle control); higher = more surviving cells
Procedure: (§1)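 Flow-cytometric in vitro micronucleus assay (Litron MicroFlow) in CHO-K1 cells in 96-well plates, 19 concentrations (4.5-200 µM, n=1 per concentration). Without S9, cells were exposed for 24 h and sampled at 48 h. With Aroclor 1254-induced rat liver S9, cells were exposed for 3-4 h and sampled at 27-28 h. Read-outs are %MN and %hypodiploid nuclei relative to nucleated events, and relative survival as the nuclei-to-bead ratio versus the 1% DMSO vehicle control (x100).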

CHO-K1 [2] = assay: micronucleus frequency (% of nucleated events); higher = more micronuclei (genotoxic)
CHO-K1 [3] = assay: hypodiploid nuclei frequency (% of nucleated events); higher = more hypodiploid events (aneugenic)
Procedure: as §1
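For hypodiploid nuclei frequency (% of nucleated events) in this document: hypodiploid nuclei gated on a flow cytometer with 488 nm excitation after SYTOX Green staining, cultures at 37 °C, positive controls vinblastine without S9 and cyclophosphamide with S9.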
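For micronucleus frequency (% of nucleated events) in this document: cells lysed with nuclei stained by SYTOX Green, then micronucleus-gated events counted against nucleated events by flow cytometry with 488 nm excitation.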
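For relative survival (nuclei to bead ratio vs DMSO control) in this document: Lysed-cell nuclei stained with SYTOX Green and counted against counting beads by flow cytometry at 488 nm excitation, with vinblastine (no S9) and cyclophosphamide (plus S9) as positive controls.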

O=C(O)C1C(C(=O)O)C2(Cl)C(Cl)=C(Cl)C1(Cl)C2(Cl)Cl (centres undefined) [Chlorendic acid]
Settings | hypodiploid nuclei frequency, CHO-K1 [3] [%] | micronucleus frequency, CHO-K1 [2] [%] | relative survival, CHO-K1 [1]
concentration: 4.5 (µM), S9 metabolic activation: with S9, exposure time: 3-4 hours | 0.22 | 1.24 | 124
concentration: 4.5 (µM), S9 metabolic activation: without S9, exposure time: 24 hours | 0.92 | 0.88 | 119
concentration: 5.63 (µM), S9 metabolic activation: with S9, exposure time: 3-4 hours | 0.3 | 1.68 | 122
concentration: 5.63 (µM), S9 metabolic activation: without S9, exposure time: 24 hours | 0.68 | 1.14 | 126
concentration: 7.04 (µM), S9 metabolic activation: with S9, exposure time: 3-4 hours | 0.36 | 1.3 | 110
concentration: 7.04 (µM), S9 metabolic activation: without S9, exposure time: 24 hours | 0.7 | 1.24 | 112
concentration: 8.8 (µM), S9 metabolic activation: with S9, exposure time: 3-4 hours | 0.28 | 1.02 | 125
concentration: 8.8 (µM), S9 metabolic activation: without S9, exposure time: 24 hours | 0.6 | 1.3 | 109
concentration: 11 (µM), S9 metabolic activation: with S9, exposure time: 3-4 hours | 0.18 | 0.94 | 109
concentration: 11 (µM), S9 metabolic activation: without S9, exposure time: 24 hours | 0.64 | 1.32 | 116
concentration: 13.7 (µM), S9 metabolic activation: with S9, exposure time: 3-4 hours | 0.22 | 0.84 | 118
concentration: 13.7 (µM), S9 metabolic activation: without S9, exposure time: 24 hours | 0.62 | 1.36 | 119
concentration: 17.2 (µM), S9 metabolic activation: with S9, exposure time: 3-4 hours | 0.26 | 0.66 | 116
concentration: 17.2 (µM), S9 metabolic activation: without S9, exposure time: 24 hours | 0.58 | 1.52 | 124
concentration: 21.5 (µM), S9 metabolic activation: with S9, exposure time: 3-4 hours | 0.24 | 1.16 | 121
concentration: 21.5 (µM), S9 metabolic activation: without S9, exposure time: 24 hours | 0.76 | 1.48 | 109
concentration: 26.8 (µM), S9 metabolic activation: with S9, exposure time: 3-4 hours | 0.32 | 1.18 | 110
concentration: 26.8 (µM), S9 metabolic activation: without S9, exposure time: 24 hours | 0.98 | 1.3 | 123
concentration: 33.6 (µM), S9 metabolic activation: with S9, exposure time: 3-4 hours | 0.38 | 1.36 | 110
concentration: 33.6 (µM), S9 metabolic activation: without S9, exposure time: 24 hours | 1.34 | 1.08 | 120
concentration: 41.9 (µM), S9 metabolic activation: with S9, exposure time: 3-4 hours | 0.26 | 1.24 | 132
concentration: 41.9 (µM), S9 metabolic activation: without S9, exposure time: 24 hours | 0.9 | 0.98 | 106
concentration: 52.4 (µM), S9 metabolic activation: with S9, exposure time: 3-4 hours | 0.14 | 0.96 | 119
concentration: 52.4 (µM), S9 metabolic activation: without S9, exposure time: 24 hours | 1 | 1.28 | 128
concentration: 65.5 (µM), S9 metabolic activation: with S9, exposure time: 3-4 hours | 0.18 | 1.26 | 112
concentration: 65.5 (µM), S9 metabolic activation: without S9, exposure time: 24 hours | 1.04 | 1.04 | 126
concentration: 81.9 (µM), S9 metabolic activation: with S9, exposure time: 3-4 hours | 0.24 | 1.06 | 131
concentration: 81.9 (µM), S9 metabolic activation: without S9, exposure time: 24 hours | 0.7 | 1.6 | 138
concentration: 102 (µM), S9 metabolic activation: with S9, exposure time: 3-4 hours | 0.14 | 1.12 | 116
concentration: 102 (µM), S9 metabolic activation: without S9, exposure time: 24 hours | 1.1 | 1.56 | 142
concentration: 128 (µM), S9 metabolic activation: with S9, exposure time: 3-4 hours | 0.2 | 1.12 | 116
concentration: 128 (µM), S9 metabolic activation: without S9, exposure time: 24 hours | 1.06 | 1.68 | 120
concentration: 160 (µM), S9 metabolic activation: with S9, exposure time: 3-4 hours | 0.18 | 1.22 | 107
concentration: 160 (µM), S9 metabolic activation: without S9, exposure time: 24 hours | 1.1 | 1.74 | 121
concentration: 200 (µM), S9 metabolic activation: with S9, exposure time: 3-4 hours | 0.36 | 1.1 | 115
concentration: 200 (µM), S9 metabolic activation: without S9, exposure time: 24 hours | 1.58 | 2.08 | 122

CCOC(=O)C(O)(c1ccc(Cl)cc1)c1ccc(Cl)cc1 [Chlorobenzilate]
Settings | hypodiploid nuclei frequency, CHO-K1 [3] [%] | micronucleus frequency, CHO-K1 [2] [%] | relative survival, CHO-K1 [1]
concentration: 4.5 (µM), S9 metabolic activation: with S9, exposure time: 3-4 hours | 0.36 | 1.38 | 113
concentration: 4.5 (µM), S9 metabolic activation: without S9, exposure time: 24 hours | 0.72 | 1.92 | 150
concentration: 5.63 (µM), S9 metabolic activation: with S9, exposure time: 3-4 hours | 0.18 | 1.16 | 89.5
concentration: 5.63 (µM), S9 metabolic activation: without S9, exposure time: 24 hours | 0.78 | 2.38 | 147
concentration: 7.04 (µM), S9 metabolic activation: with S9, exposure time: 3-4 hours | 0.18 | 1 | 104
concentration: 7.04 (µM), S9 metabolic activation: without S9, exposure time: 24 hours | 0.72 | 2.04 | 130
concentration: 8.8 (µM), S9 metabolic activation: with S9, exposure time: 3-4 hours | 0.14 | 1.2 | 108
concentration: 8.8 (µM), S9 metabolic activation: without S9, exposure time: 24 hours | 0.64 | 1.7 | 131
concentration: 11 (µM), S9 metabolic activation: with S9, exposure time: 3-4 hours | 0.12 | 0.92 | 104
concentration: 11 (µM), S9 metabolic activation: without S9, exposure time: 24 hours | 0.58 | 1.54 | 113
concentration: 13.7 (µM), S9 metabolic activation: with S9, exposure time: 3-4 hours | 0.34 | 1.14 | 106
concentration: 13.7 (µM), S9 metabolic activation: without S9, exposure time: 24 hours | 0.62 | 1.78 | 123
concentration: 17.2 (µM), S9 metabolic activation: with S9, exposure time: 3-4 hours | 0.14 | 1 | 92.1
concentration: 17.2 (µM), S9 metabolic activation: without S9, exposure time: 24 hours | 0.2 | 1.78 | 115
concentration: 21.5 (µM), S9 metabolic activation: with S9, exposure time: 3-4 hours | 0.22 | 0.78 | 90
concentration: 21.5 (µM), S9 metabolic activation: without S9, exposure time: 24 hours | 0.36 | 2.2 | 112
concentration: 26.8 (µM), S9 metabolic activation: with S9, exposure time: 3-4 hours | 0.18 | 1.42 | 94.5
concentration: 26.8 (µM), S9 metabolic activation: without S9, exposure time: 24 hours | 0.32 | 1.34 | 93.5
concentration: 33.6 (µM), S9 metabolic activation: with S9, exposure time: 3-4 hours | 0.14 | 1.08 | 90
concentration: 33.6 (µM), S9 metabolic activation: without S9, exposure time: 24 hours | 0.44 | 0.72 | 104
concentration: 41.9 (µM), S9 metabolic activation: with S9, exposure time: 3-4 hours | 0.26 | 1.14 | 108
concentration: 41.9 (µM), S9 metabolic activation: without S9, exposure time: 24 hours | 0.72 | 1.24 | 80
concentration: 52.4 (µM), S9 metabolic activation: with S9, exposure time: 3-4 hours | 0.3 | 1.26 | 105
concentration: 52.4 (µM), S9 metabolic activation: without S9, exposure time: 24 hours | 1.34 | 2.78 | 89.7
concentration: 65.5 (µM), S9 metabolic activation: with S9, exposure time: 3-4 hours | 0.14 | 1.04 | 103
concentration: 65.5 (µM), S9 metabolic activation: without S9, exposure time: 24 hours | 3.3 | 4.18 | 54.4
concentration: 81.9 (µM), S9 metabolic activation: with S9, exposure time: 3-4 hours | 0.18 | 1.08 | 121
concentration: 81.9 (µM), S9 metabolic activation: without S9, exposure time: 24 hours | 2.62 | 5.88 | 61.4
concentration: 102 (µM), S9 metabolic activation: with S9, exposure time: 3-4 hours | 0.24 | 1.18 | 114
concentration: 102 (µM), S9 metabolic activation: without S9, exposure time: 24 hours | – | – | 39
concentration: 128 (µM), S9 metabolic activation: with S9, exposure time: 3-4 hours | 0.36 | 1.42 | 81.1
concentration: 128 (µM), S9 metabolic activation: without S9, exposure time: 24 hours | – | – | 35.3
concentration: 160 (µM), S9 metabolic activation: with S9, exposure time: 3-4 hours | – | – | 32.1
concentration: 160 (µM), S9 metabolic activation: without S9, exposure time: 24 hours | – | – | 25.4
concentration: 200 (µM), S9 metabolic activation: with S9, exposure time: 3-4 hours | – | – | 0.11
concentration: 200 (µM), S9 metabolic activation: without S9, exposure time: 24 hours | – | – | 1.12
